The supplement of paper PMC8728848
The list shows a part of the results.

How the values were obtained:
Assay in all cases: glycan array binding signal (z-score within array); higher = stronger binding
Conditions in all cases: glycan notation: IUPAC condensed, linker removed
[1] = molecular target: Fuc(a1-2)Gal(b1-4)[Fuc(a1-3)]GlcNAc(b1-3)GalNAc
Outline: (§1)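 From the Consortium for Functional Glycomics database, 3228 arrays were curated, keeping only those whose protein sequence was available. Binding is given as a within-array Z-score averaged across arrays sharing a protein sequence and across linkers. Negative Z-scores can be read as non-binding.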

[2] = molecular target: Fuc(a1-2)Gal(b1-4)[Fuc(a1-3)]GlcNAc(b1-3)[Neu5Ac(a2-6)Gal(b1-4)GlcNAc(b1-6)]Gal(b1-4)Glc
Outline: as §1

[3] = molecular target: Fuc(a1-2)Gal3S(b1-4)GlcNAc
Outline: as §1

[4] = molecular target: Fuc(a1-2)Gal6S(b1-3)GlcNAc
Outline: as §1

[5] = molecular target: Fuc(a1-2)Gal6S(b1-3)GlcNAc6S
Outline: as §1

Fuc(a1-2)Gal6S(b1-4)Glc = molecular target: Fuc(a1-2)Gal6S(b1-4)Glc
Outline: as §1

[6] = molecular target: Fuc(a1-2)Gal6S(b1-4)Glc6S
Outline: as §1

Fuc(a1-2)GlcNAc = molecular target: Fuc(a1-2)GlcNAc
Outline: as §1

Fuc(a1-2)[Gal(a1-3)]Gal = molecular target: Fuc(a1-2)[Gal(a1-3)]Gal
Outline: as §1

[7] = molecular target: Fuc(a1-2)[Gal(a1-3)]Gal(b1-3)GalNAc
Outline: as §1

[8] = molecular target: Fuc(a1-2)[Gal(a1-3)]Gal(b1-3)GalNAc(b1-3)Gal(a1-4)Gal(b1-4)Glc
Outline: as §1

[9] = molecular target: Fuc(a1-2)[Gal(a1-3)]Gal(b1-3)GlcNAc
Outline: as §1

[10] = molecular target: Fuc(a1-2)[Gal(a1-3)]Gal(b1-3)GlcNAc(b1-2)Man(a1-3)[Fuc(a1-2)[Gal(a1-3)]Gal(b1-3)GlcNAc(b1-2)Man(a1-6)]Man(b1-4)GlcNAc(b1-4)GlcNAc
Outline: as §1

[11] = molecular target: Fuc(a1-2)[Gal(a1-3)]Gal(b1-3)GlcNAc(b1-2)Man(a1-3)[Fuc(a1-2)[Gal(a1-3)]Gal(b1-3)GlcNAc(b1-2)Man(a1-6)]Man(b1-4)GlcNAc(b1-4)[Fuc(a1-6)]GlcNAc
Outline: as §1

[12] = molecular target: Fuc(a1-2)[Gal(a1-3)]Gal(b1-3)GlcNAc(b1-3)GalNAc
Outline: as §1

[13] = molecular target: Fuc(a1-2)[Gal(a1-3)]Gal(b1-3)GlcNAc(b1-6)GalNAc
Outline: as §1

[14] = molecular target: Fuc(a1-2)[Gal(a1-3)]Gal(b1-4)Glc
Outline: as §1

[15] = molecular target: Fuc(a1-2)[Gal(a1-3)]Gal(b1-4)GlcNAc
Outline: as §1

[16] = molecular target: Fuc(a1-2)[Gal(a1-3)]Gal(b1-4)GlcNAc(b1-2)Man
Outline: as §1

[17] = molecular target: Fuc(a1-2)[Gal(a1-3)]Gal(b1-4)GlcNAc(b1-2)Man(a1-3)[Fuc(a1-2)[Gal(a1-3)]Gal(b1-4)GlcNAc(b1-2)Man(a1-6)]Man(b1-4)GlcNAc(b1-4)GlcNAc
Outline: as §1

[18] = molecular target: Fuc(a1-2)[Gal(a1-3)]Gal(b1-4)GlcNAc(b1-2)Man(a1-3)[Fuc(a1-2)[Gal(a1-3)]Gal(b1-4)GlcNAc(b1-2)Man(a1-6)]Man(b1-4)GlcNAc(b1-4)[Fuc(a1-6)]GlcNAc
Outline: as §1

[19] = molecular target: Fuc(a1-2)[Gal(a1-3)]Gal(b1-4)GlcNAc(b1-3)GalNAc
Outline: as §1

[20] = molecular target: Fuc(a1-2)[Gal(a1-3)]Gal(b1-4)GlcNAc(b1-3)[Fuc(a1-2)[Gal(a1-3)]Gal(b1-4)GlcNAc(b1-6)]GalNAc
Outline: as §1

[21] = molecular target: Fuc(a1-2)[Gal(a1-3)]Gal(b1-4)GlcNAc(b1-6)GalNAc
Outline: as §1

[22] = molecular target: Fuc(a1-2)[Gal(a1-3)]Gal(b1-4)[Fuc(a1-3)]Glc
Outline: as §1

[23] = molecular target: Fuc(a1-2)[Gal(a1-3)]Gal(b1-4)[Fuc(a1-3)]GlcNAc
Outline: as §1

[24] = molecular target: Fuc(a1-2)[Gal(a1-3)]Gal(b1-4)[Fuc(a1-3)]GlcNAc(b1-3)GalNAc
Outline: as §1

[25] = molecular target: Fuc(a1-2)[Gal(a1-4)]Gal(b1-4)GalNAc
Outline: as §1

[26] = molecular target: Fuc(a1-2)[Gal(a1-4)]Gal(b1-4)GlcNAc
Outline: as §1

[27] = molecular target: Fuc(a1-2)[GalNAc(a1-3)]Gal
Outline: as §1

[28] = molecular target: Fuc(a1-2)[GalNAc(a1-3)]Gal(b1-3)GalNAc(a1-3)[Fuc(a1-2)]Gal(b1-4)GlcNAc
Outline: as §1

[29] = molecular target: Fuc(a1-2)[GalNAc(a1-3)]Gal(b1-3)GalNAc(b1-3)Gal(a1-4)Gal(b1-4)Glc
Outline: as §1

[30] = molecular target: Fuc(a1-2)[GalNAc(a1-3)]Gal(b1-3)GlcNAc
Outline: as §1

[31] = molecular target: Fuc(a1-2)[GalNAc(a1-3)]Gal(b1-3)GlcNAc(b1-2)Man(a1-3)[Fuc(a1-2)[GalNAc(a1-3)]Gal(b1-3)GlcNAc(b1-2)Man(a1-6)]Man(b1-4)GlcNAc(b1-4)GlcNAc
Outline: as §1

[32] = molecular target: Fuc(a1-2)[GalNAc(a1-3)]Gal(b1-3)GlcNAc(b1-2)Man(a1-3)[Fuc(a1-2)[GalNAc(a1-3)]Gal(b1-3)GlcNAc(b1-2)Man(a1-6)]Man(b1-4)GlcNAc(b1-4)[Fuc(a1-6)]GlcNAc
Outline: as §1

[33] = molecular target: Fuc(a1-2)[GalNAc(a1-3)]Gal(b1-3)GlcNAc(b1-3)GalNAc
Outline: as §1

[34] = molecular target: Fuc(a1-2)[GalNAc(a1-3)]Gal(b1-3)GlcNAc(b1-6)GalNAc
Outline: as §1

[35] = molecular target: Fuc(a1-2)[GalNAc(a1-3)]Gal(b1-4)Glc
Outline: as §1

[36] = molecular target: Fuc(a1-2)[GalNAc(a1-3)]Gal(b1-4)GlcNAc
Outline: as §1

[37] = molecular target: Fuc(a1-2)[GalNAc(a1-3)]Gal(b1-4)GlcNAc(b1-2)Man
Outline: as §1

[38] = molecular target: Fuc(a1-2)[GalNAc(a1-3)]Gal(b1-4)GlcNAc(b1-2)Man(a1-3)[Fuc(a1-2)[GalNAc(a1-3)]Gal(b1-4)GlcNAc(b1-2)Man(a1-6)]Man(b1-4)GlcNAc(b1-4)GlcNAc
Outline: as §1

[39] = molecular target: Fuc(a1-2)[GalNAc(a1-3)]Gal(b1-4)GlcNAc(b1-2)Man(a1-3)[Fuc(a1-2)[GalNAc(a1-3)]Gal(b1-4)GlcNAc(b1-2)Man(a1-6)]Man(b1-4)GlcNAc(b1-4)[Fuc(a1-6)]GlcNAc
Outline: as §1

[40] = molecular target: Fuc(a1-2)[GalNAc(a1-3)]Gal(b1-4)GlcNAc(b1-3)Gal(b1-4)GlcNAc
Outline: as §1

[41] = molecular target: Fuc(a1-2)[GalNAc(a1-3)]Gal(b1-4)GlcNAc(b1-3)Gal(b1-4)GlcNAc(b1-3)Gal(b1-4)GlcNAc
Outline: as §1

[42] = molecular target: Fuc(a1-2)[GalNAc(a1-3)]Gal(b1-4)GlcNAc(b1-3)GalNAc
Outline: as §1

B1: Epa12 (Candida glabrata) (protein)
chain: MGSSHHHHHHSSGLVPRGSHMLEPDNSLQIFDSFLSNPSKYPLGCSPKITNPKKGLSMELYSYPYRKKGSHPCWDPAYLDPNFPRVGYKKNKLIARVDGVSGDINFNFHPKRQCTPIADYLPPNFNYNEPITTTNFTMLLYGYFKPKVTGLHTFDISADDLLFMNFGAGNAFDCCRRDSTADTFGNYVAWAIWGRRIVRNKLTVRLDKGIYYPLRLFFNNRDYYGQMRLTFKTEHGSERITDFSDYFFSVDDTSEGCPGLITYESECADVKSSTVLETDYITIQAEKE
- glycan array binding signal (z-score) [1]: -0.218
- glycan array binding signal (z-score) [2]: -0.255
- glycan array binding signal (z-score) [3]: 0.06
- glycan array binding signal (z-score) [4]: -0.227
- glycan array binding signal (z-score) [5]: 0.095
- glycan array binding signal (z-score) (Fuc(a1-2)Gal6S(b1-4)Glc): -0.216
- glycan array binding signal (z-score) [6]: 0.024
- glycan array binding signal (z-score) (Fuc(a1-2)GlcNAc): -0.268
- glycan array binding signal (z-score) (Fuc(a1-2)[Gal(a1-3)]Gal): 1.07
- glycan array binding signal (z-score) [7]: 0.314
- glycan array binding signal (z-score) [8]: -0.19
- glycan array binding signal (z-score) [9]: -0.006
- glycan array binding signal (z-score) [10]: -0.314
- glycan array binding signal (z-score) [11]: -0.1
- glycan array binding signal (z-score) [12]: -0.246
- glycan array binding signal (z-score) [13]: -0.117
- glycan array binding signal (z-score) [14]: -0.13
- glycan array binding signal (z-score) [15]: 0.356
- glycan array binding signal (z-score) [16]: -0.032
- glycan array binding signal (z-score) [17]: -0.2
- glycan array binding signal (z-score) [18]: -0.163
- glycan array binding signal (z-score) [19]: -0.008
- glycan array binding signal (z-score) [20]: 0.162
- glycan array binding signal (z-score) [21]: -0.348
- glycan array binding signal (z-score) [22]: -0.326
- glycan array binding signal (z-score) [23]: -0.256
- glycan array binding signal (z-score) [24]: -0.164
- glycan array binding signal (z-score) [25]: -0.204
- glycan array binding signal (z-score) [26]: 4.84
- glycan array binding signal (z-score) [27]: -0.313
- glycan array binding signal (z-score) [28]: -0.325
- glycan array binding signal (z-score) [29]: -0.336
- glycan array binding signal (z-score) [30]: -0.285
- glycan array binding signal (z-score) [31]: -0.323
- glycan array binding signal (z-score) [32]: -0.264
- glycan array binding signal (z-score) [33]: -0.345
- glycan array binding signal (z-score) [34]: -0.381
- glycan array binding signal (z-score) [35]: -0.281
- glycan array binding signal (z-score) [36]: -0.321
- glycan array binding signal (z-score) [37]: -0.324
- glycan array binding signal (z-score) [38]: -0.235
- glycan array binding signal (z-score) [39]: -0.115
- glycan array binding signal (z-score) [40]: -0.402
- glycan array binding signal (z-score) [41]: -0.266
- glycan array binding signal (z-score) [42]: -0.387
